These results are taken from PMC6919601, “Identification of Plasmodium dipeptidyl aminopeptidase allosteric inhibitors by high throughput screening” (PLoS ONE, 2019).

Out of some 110,000 compounds screened, about 230 (0.21%) showed an effect of 50% or more. The list shows a part of the results.
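Note: 30 min substrate incubation versus DMSO and 10 µM JCP410 controls.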

DPAP1, sequence (Q8IIJ9 whole entry, looked up): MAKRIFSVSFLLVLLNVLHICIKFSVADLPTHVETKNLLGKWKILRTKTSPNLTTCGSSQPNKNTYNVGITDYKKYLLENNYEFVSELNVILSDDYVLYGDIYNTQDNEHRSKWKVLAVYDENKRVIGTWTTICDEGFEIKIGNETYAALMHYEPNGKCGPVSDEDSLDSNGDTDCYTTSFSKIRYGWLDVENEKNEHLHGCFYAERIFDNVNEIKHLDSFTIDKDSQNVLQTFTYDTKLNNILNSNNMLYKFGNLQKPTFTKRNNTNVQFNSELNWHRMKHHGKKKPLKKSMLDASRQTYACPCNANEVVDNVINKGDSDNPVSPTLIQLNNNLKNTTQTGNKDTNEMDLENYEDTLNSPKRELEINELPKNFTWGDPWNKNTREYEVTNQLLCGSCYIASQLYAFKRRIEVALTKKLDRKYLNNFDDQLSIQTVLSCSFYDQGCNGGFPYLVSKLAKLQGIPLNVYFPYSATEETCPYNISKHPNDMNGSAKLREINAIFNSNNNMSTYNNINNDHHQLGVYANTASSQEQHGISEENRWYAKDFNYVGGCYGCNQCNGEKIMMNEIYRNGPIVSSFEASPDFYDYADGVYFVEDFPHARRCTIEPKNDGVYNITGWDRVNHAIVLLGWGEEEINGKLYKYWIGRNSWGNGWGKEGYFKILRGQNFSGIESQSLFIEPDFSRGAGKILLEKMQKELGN

The assay concerns the target DPAP1 (Plasmodium falciparum, UniProt Q8IIJ9). The assay can be described thus: primary screen, percent inhibition; read by cleavage of a fluorogenic dipeptide substrate; higher = more effect of the substance. Further details: species or system P. falciparum D10 trophozoite lysates; single well.
Consider `c1coc(-c2nnc(C3CCCCC3)o2)c1`, for which the “% Inhibition @ 10 uM” value is -3.32%.
With `CN(C)CCOC(=O)C12CC3CC(c4ccccc4)(C1)CC(c1ccccc1)(C3)C2`, the “% Inhibition @ 10 uM” value is reported as -1.54%.
For `N=c1c(C(=O)NCc2cccnc2)cc2c(=O)n3ccccc3nc2n1CCCn1ccnc1` the value was -5.62%.
`Cc1nn(-c2nc3ccccc3s2)c(N)c1-c1ccc(Cl)cc1`: the “% Inhibition @ 10 uM” value was 2.16%.
For `COc1ccc(-c2cc(C(F)(F)F)n3nc(C(=O)N4CCOCC4)cc3n2)cc1OC` the value was 3.9%; for `Cc1cc(NC(=O)CSC2=N/C(=C/c3ccc(N(C)C)cc3)C(=O)N2c2ccccc2)no1`, 4.28%; for `Clc1ccc(Nc2ncnc3sc4c(c23)CCCC4)cc1Cl`, -3.93%.
In the case of `C=CCSc1nnc2sc3ccccc3n12`, the “% Inhibition @ 10 uM” value is -5.26%.
For `COCCn1c(-c2ccccc2)cc(C(=O)O)c1C` the value was 1.94%; for `Cc1cccn2c(=O)c(/C=C3\SC(=S)NC3=O)c(NCCCn3ccnc3)nc12`, -3.21%.
Regarding `Cc1nc2ncnn2c(O)c1CCC(=O)NC1CCCCCC1`, the “% Inhibition @ 10 uM” value is given as -1.3%.
On to `CCN(CC)c1nc2c(S(=O)(=O)c3ccc(Cl)cc3)nnn2c2ccsc12`, for which the “% Inhibition @ 10 uM” value is recorded as -4.95%.
For `CC1CCC(N2CCN(c3ccc(Cl)cc3)CC2)C1` (stereo not drawn) the value was -1.41%; for `Cc1cc2ccccc2n1CCNC(=O)C12CC3CC(CC(C3)C1)C2`, 2.54%.
Consider `Cc1ccc2c(c1)-c1c(cnn1CC(=O)NCCN1CCC(Cc3ccccc3)CC1)CO2`, for which the “% Inhibition @ 10 uM” value is recorded as 5.92%.
As to `CCc1nc(SCc2cccnc2)c(C#N)c(C(F)(F)F)c1C`, the “% Inhibition @ 10 uM” value is recorded as 0.775%.
As for `N#CCCN1CCn2c3c(c4cc(C5CCCCC5)ccc42)CCCC31` (stereo not drawn), the “% Inhibition @ 10 uM” value is recorded as -0.999%.
For the molecule `Cc1ccc(C(=O)N2CCN(C/C=C/c3ccccc3)CC2)cc1`, the “% Inhibition @ 10 uM” value is listed as -0.636%.
For `Cc1ccc(-c2noc(CSc3nnnn3-c3ccccc3)n2)cc1` the value was 1.31%; for `CC12CN3CC(C)(CN(C1)C3c1ccccc1)C2` (stereo not drawn), 2.51%; for `COc1ccccc1C(=O)NCCn1cc(SCC(=O)Nc2nnc(C)s2)c2ccccc21`, 1.08%.
For `CC(=O)N1CCN(Cc2ccc(Cl)cc2)CC1` the value was 2.7%.
For `Cc1ccc(OCC(=O)Nc2ccc(S(=O)(=O)Nc3nc(C)cc(C)n3)cc2)cc1` the value was -7.14%.
Regarding `CCOC(=O)N1CCN(c2c(N3CCC(C(N)=O)CC3)c(=O)c2=O)CC1`, the “% Inhibition @ 10 uM” value is on record as 0.277%.
As for `O=S1(=O)C2C=C(Cc3ccccc3)C1CCC2` (stereo not drawn), the “% Inhibition @ 10 uM” value is -6.58%.
In the case of `Cc1nnc2c(NCCCN3CCN(Cc4ccccc4)CC3)nc3ccccc3n12`, the “% Inhibition @ 10 uM” value is recorded as 0.372%.
For `COc1ccc2nc(NC(=O)C3CCN(S(=O)(=O)c4c[nH]cn4)CC3)sc2c1` the value was -4.14%; for `CCN1CC(C)C(O)(c2ccccc2)CC1C` (stereo not drawn), 4.7%; for `Nc1cc(-c2ccc(Br)cc2)nn1Cc1ccccc1`, -3.69%.
Take `CCSc1nc(-c2ccccc2)cc(-c2cccnc2)c1C#N`: the “% Inhibition @ 10 uM” value was -4.12%.
For `Cc1ccc2nc3c(cc(C(=O)NC(C)c4ccccc4)c(=N)n3Cc3cccnc3)c(=O)n2c1` (stereo not drawn), the “% Inhibition @ 10 uM” value was -5.14%.
Regarding `O=C1CCSc2c1cccc2C(=O)NC1CCCCC1`, the “% Inhibition @ 10 uM” value is reported as -1.71%.
For `Nc1nc(-c2cccnc2)nn1C(=O)c1ccc(F)cc1` the value was 0.628%; for `CCOC(=O)c1cnc(SCC(=O)NCc2ccccc2)nc1N`, 0.558%.
For `Cc1nn(CC(=O)N2CC(C)CC(C)C2)c(=O)c2c1sc1ccccc12` (stereo not drawn) the value was 1.61%.
For `CCN(CC)CCN(C)C/C=C/c1ccccc1` the value was 3.24%; for `CCN1CCN(C(=O)C2CCN(S(=O)(=O)N3CCC4(CC3)OCCO4)CC2)CC1`, -1.21%.
Consider `CCOC(=O)N1CCN(c2nc3ccc(Cl)cc3n3cnnc23)CC1`, for which the “% Inhibition @ 10 uM” value came to 4.33%.
For `O=C(COc1ccc(Cl)cc1Cl)Nc1ccc(S(=O)(=O)N2CCCCCC2)cc1` the value was -1.49%; for `CCn1cc(CCCC(=O)N2CCCC2)c2ccccc21`, 2.07%.
For `Fc1ccc(CN2CCc3c([nH]c4ccccc34)C2)cc1F` the value was 4.57%; for `CCCCN(C)CCCNC(=O)Cn1ncc2c3ccccc3n(Cc3ccc(F)cc3)c2c1=O`, 6.46%; for `Cc1ccc(C(=O)N/C(=C\c2cccs2)C(=O)NCCc2ccccn2)cc1C`, 0.484%.
For `COCCNc1ncnc2c1nc1n2CCCCC1` the value was 1.51%; for `N#Cc1cc2c(nc1SCC(=O)Nc1nonc1N)CCC2`, 4.61%.
`COCCn1c(=N)c(C(N)=S)cc2c(=O)n3ccccc3nc21`: the “% Inhibition @ 10 uM” value is 6.7%.
For `COc1ccccc1CNC(=O)CCS(=O)(=O)c1cccc2nonc12` the value was -8.38%; for `CN1C(=O)C(=Cc2ccc(Sc3ccc(Cl)cc3)o2)C(=O)N(C)C1=O`, -3.78%; for `C/C(=N\Cc1ccco1)C1=C(O)CC(C)(C)CC1=O`, -7.75%.
For `Cc1cc(C)c(/C=C2\NC(=S)NC2=O)c(C)c1`, the “% Inhibition @ 10 uM” value is -5.62%.
For `O=C(CNC(=O)c1ccccc1F)Nc1nccs1` the value was -3.06%.
